Drawing on PubChem BioAssay (NCI), this text covers GI50 and TGI for five molecules.

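These data come from cells grown in 96-well plates and exposed to compound for 48 hours at five concentrations. Abbreviation: GI50, concentration required for 50% inhibition of growth. Definition used: TGI = concentration required for complete inhibition of growth.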

The test system of the test is NCI-H322M lung. The test is described as follows: DTP human tumour cell line panel, 48 h.
On to `O=C(NNc1nc2cc(C(F)(F)F)ccc2n2cccc12)c1cnccn1`, for which the GI50 was 0.162 µM and the TGI was 2.11 µM.
The matching figures for `COc1cc(/C=C/C(=O)c2cnn(-c3cc(=O)[nH]c4ccc(Cl)cc34)c2C)cc(OC)c1OC`: 2.72 µM and 9.28 µM.
In the case of `COc1cc2c(c(OC)c1OC)C(=O)CC(c1cccc(NC(=O)c3cc([N+](=O)[O-])ccc3Cl)c1)O2` (stereo not given), the GI50 was 22 µM and the TGI is greater than 100 µM.
Regarding `NCCCCn1c(SCCc2c[nH]c3ccccc23)nnc1-c1ccc2ccccc2n1`, the GI50 was 5.87 µM and the TGI stood at 12.7 µM.
The corresponding values for `CC(=C(c1ccc(OCCN2CCCCC2)cc1)c1ccc(OCCN2CCCCC2)cc1)c1ccccc1` are 8.21 µM and greater than 21.8 µM.
